# Measurements: paper PMC8179794, “Modeling cell-specific dynamics and regulation of the common gamma chain cytokines” (Cell reports, 2021)
# T1: IL2-Rα ectodomain (UniProt P01589 22-240)
# T1 construct: IL-2 receptor alpha chain (IL-2Rα, CD25), ectodomain
# T1 sequence (looked up): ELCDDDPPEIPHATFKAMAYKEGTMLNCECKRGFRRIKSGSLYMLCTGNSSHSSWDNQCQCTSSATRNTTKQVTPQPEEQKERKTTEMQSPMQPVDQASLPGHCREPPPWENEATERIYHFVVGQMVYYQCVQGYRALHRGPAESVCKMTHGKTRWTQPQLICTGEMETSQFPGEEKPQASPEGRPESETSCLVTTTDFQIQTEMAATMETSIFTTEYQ
# T2: IL-2Rβ/g Fc heterodimer (UniProt P14784 27-240; P31785 23-262)
# T2 construct: IL-2 receptor beta chain (IL-2Rβ), ectodomain; common gamma chain (γc), ectodomain; also called IL-2Rβ/γc; IL-2Rβ/γ; source: Expi293 system, purified (MabSelect resin); not shown: Fc (heterodimeric); copies: 1 + 1
# T2 sequence (looked up) 1: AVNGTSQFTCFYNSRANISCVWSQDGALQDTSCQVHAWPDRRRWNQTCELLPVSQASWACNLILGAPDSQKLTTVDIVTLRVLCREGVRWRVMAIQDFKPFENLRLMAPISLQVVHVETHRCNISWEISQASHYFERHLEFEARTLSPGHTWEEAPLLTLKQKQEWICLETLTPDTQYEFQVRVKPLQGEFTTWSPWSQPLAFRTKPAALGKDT
# T2 sequence (looked up) 2: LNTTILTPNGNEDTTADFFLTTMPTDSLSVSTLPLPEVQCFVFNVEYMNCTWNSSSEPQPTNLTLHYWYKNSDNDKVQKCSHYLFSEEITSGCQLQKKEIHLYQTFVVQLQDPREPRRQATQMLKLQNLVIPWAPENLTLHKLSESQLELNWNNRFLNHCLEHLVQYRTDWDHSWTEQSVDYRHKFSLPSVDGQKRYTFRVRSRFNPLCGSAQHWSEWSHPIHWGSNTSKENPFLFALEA
# How the values were obtained:
# IL2-Rα ectodomain = molecular target: T1, IL2-Rα ectodomain; assay: BLI; Octet RED384; biotinylated monomeric IL-2/Fc fusion proteins loaded to Streptavidin biosensors at roughly 10% of saturation; IL-2Rα from 25 nM to 20 pM in PBS + 0.1% BSA; equilibrium binding used to determine the KD; quadruplicate across two days; conditions: both partners purified
# IL-2Rβ/g Fc heterodimer = molecular target: T2, IL-2Rβ/g Fc heterodimer; assay: BLI; Octet RED384; biotinylated monomeric IL-2/Fc fusion proteins loaded to Streptavidin biosensors at roughly 10% of saturation; IL-2Rβ/g titrated in 2x steps from 400 nM to 6.25 nM in PBS + 0.1% BSA; association up to 40 mins; 1:1 binding model fitted to the entire binding curve; quadruplicate across two days; conditions: both partners purified
binder,measurement,setting,value
"N88D (IL-2 mutein, monomeric IL-2/Fc fusion protein) (Fc fusion, biotin (BirA enzyme, AviTag), human interleukin-2 (IL-2) with N88D; source: Expi293 expression system, purified (MabSelect resin), biotinylated with BirA; not shown: Fc (human IgG1); mutations to prevent dimerization) not shown",binding result,IL2-Rα ectodomain,binds
same,binding result,IL-2Rβ/g Fc heterodimer,binds
